Laboratory results published in the supplement of paper PMC4967469.
The IC50 comes from the fitted curve, where viability falls to half of the control; a limit (>, <) means that the fit lies beyond the doses tested. AUC is the area under the same curve over the 256-fold range up to the top dose, as a fraction; values near 1 show little effect. For part of these data: Any top dose called inferred is not printed in the source and was worked back from the curve model.

Experiments:
Assay in all cases: Viability of human cancer cell lines after 72 h of drug (GDSC screen)
[1] = compound: CO[C@@H]1[C@H](N(C)C(=O)c2ccccc2)C[C@H]2O[C@]1(C)n1c3ccccc3c3c4c(c5c6ccccc6n2c5c31)C(=O)NC4 [Midostaurin]; settings: top dose 0.512 µM; top dose inferred
Description: (§1)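 Human cancer cell lines in 384-well plates, medium with 10% serum, drug for 72 h over a 256-fold dose range (nine 2-fold or five 4-fold steps up to the top dose). Adherent lines were fixed and stained with the nucleic acid dye Syto60, suspension lines read with resazurin; signal relative to control wells, capped at 0 and 100%. One two-parameter sigmoid per drug and line, fitted in a mixed model over all curves with the slope shared within a line.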

[2] = compound: Cc1ccc(C(=O)Nc2cccc(C(F)(F)F)c2)cc1Nc1nc(-c2cccnc2)nc2c1cnn2C [NVP-BHG712]; settings: top dose 10.24 µM; top dose inferred
Description: as §1

[3] = compound: CC[C@H](CO)Nc1nc(NCc2ccccc2)c2ncn(C(C)C)c2n1 [Roscovitine]; settings: top dose 16 µM; top dose inferred
Description: as §1

[4] = compound: COc1cc(Nc2c(C#N)cnc3cc(OCCCN4CCN(C)CC4)c(OC)cc23)c(Cl)cc1Cl [Bosutinib]; settings: top dose 2 µM
Description: as §1

[5] = compound: O=C(O)CNC(=O)c1c(O)c2ccccc2n(Cc2ccccc2)c1=O [IOX2]; settings: top dose 0.1 µM; top dose inferred
Description: as §1

[6] = compound: CO[C@@]12[C@H](COC(N)=O)C3=C(C(=O)C(C)=C(N)C3=O)N1C[C@@H]1N[C@@H]12 [Mitomycin C]; settings: top dose 16 µM
Description: as §1

| Cell Line | AUC [1] | IC50 [1] [nM] | AUC [2] | IC50 [2] [nM] | AUC [3] | IC50 [3] [nM] | AUC [4] | IC50 [4] [nM] | AUC [5] | IC50 [5] [nM] | AUC [6] | IC50 [6] [nM] |
| --- | --- | --- | --- | --- | --- | --- | --- | --- | --- | --- | --- | --- |
| KP-N-YS (neuroblastoma, adherent) | 0.887 | > 512 | 0.893 | > 10200 | 0.958 | > 16000 | – | – | – | – | – | – |
| LS-1034 (large intestine, adherent) | 0.879 | > 512 | 0.822 | 6810 | 0.928 | > 16000 | 0.985 | > 2000 | 0.98 | > 100 | – | – |
| NB17 (neuroblastoma, adherent) | 0.953 | > 512 | 0.89 | > 10200 | 0.962 | > 16000 | 0.978 | > 2000 | – | – | – | – |
| NCI-H128 (small cell lung carcinoma, suspension) | – | – | – | – | 0.979 | > 16000 | – | – | – | – | – | – |
| NCI-H211 (small cell lung carcinoma, adherent) | 0.936 | > 512 | 0.869 | 8990 | 0.977 | > 16000 | 0.972 | > 2000 | 0.986 | > 100 | – | – |
| NOMO-1 (acute myeloid leukaemia, suspension) | 0.972 | > 512 | 0.744 | 3580 | 0.909 | > 16000 | 0.847 | 1790 | 0.98 | > 100 | – | – |
| OCUB-M (breast, adherent) | 0.939 | > 512 | 0.854 | 6460 | 0.965 | > 16000 | 0.974 | > 2000 | 0.986 | > 100 | – | – |
| SKM-1 (haematopoietic neoplasm, suspension) | – | – | – | – | 0.98 | > 16000 | – | – | 0.982 | > 100 | – | – |
| SW1417 (large intestine, adherent) | 0.956 | > 512 | 0.811 | 6580 | – | – | 0.977 | > 2000 | 0.982 | > 100 | 0.516 | 1110 |
| SW1573 (lung adenocarcinoma, adherent) | 0.894 | > 512 | 0.981 | > 10200 | – | – | 0.913 | > 2000 | 0.929 | > 100 | 0.272 | 176 |
| SW1783 (glioma, adherent) | 0.895 | > 512 | 0.991 | > 10200 | – | – | 0.991 | > 2000 | 0.885 | 91 | 0.114 | 68.2 |
| SW1990 (pancreas, adherent) | 0.939 | > 512 | 0.985 | > 10200 | – | – | 0.941 | > 2000 | 0.983 | > 100 | 0.426 | 603 |
| Saos-2 (osteosarcoma, adherent) | 0.877 | > 512 | 0.981 | > 10200 | – | – | 0.978 | > 2000 | 0.978 | > 100 | 0.565 | 1620 |
| SiHa (cervix, adherent) | 0.974 | > 512 | 0.987 | > 10200 | – | – | 0.986 | > 2000 | 0.971 | > 100 | 0.629 | 2410 |
